Source: US20230310414A1

Legend:
[1] = tested on: SARS-CoV-2 Spike (S) protein treated human macrophages; assay type: cell-based
[2] = tested on: SARS-CoV-2 Spike (S) protein treated human macrophages; assay: apoptosis by caspase 3 activation in Spike protein treated macrophages; assay type: cell-based; settings: within 2 hours of treatment

Row | Compound | expression of cytokine modulators IL-10 and IFN-γ [1] | expression of pro-inflammatory cytokines IL-1a, VEGF, IL-1β, IL-2, IL-4, IL-5, IL-6, IL-8, IL-12p70, IL-13, GM-CSF, GRO, MCP-1, MIP-1α, MIP-1p, MMP-9, RANTES, and TNF-α [1] | expression of the anti-inflammatory cytokine IL-10 [1] | pro-inflammatory cytokines such as IL-1β, TNF-α, IL-6 IL-8, IL-12, MCP-1 and MIP-1α [1] | anti-inflammatory cytokines such as IL-10 [1] | pro-inflammatory cytokines VEGF, IL-6, IL-8, MIP-1α and MIP-1β [1] | apoptosis by activation of caspase 3 [2]
1 | O.O=C(OC[C@H]1O[C@@H](OC(=O)c2cc(O)c(O)c(O)c2)[C@H](OC(=O)c2cc(O)c(O)c(O)c2)[C@@H](OC(=O)c2cc(O)c(O)c(O)c2)[C@@H]1OC(=O)c1cc(O)c(O)c(O)c1)c1cc(O)c(O)c(O)c1 | activated expression | inhibited expression | increasing expression | suppressed |  |  | 
2 | COc1ccc2cc1Oc1ccc(cc1)C[C@H]1c3cc(c(OC)cc3CCN1C)Oc1c(OC)c(OC)cc3c1[C@H](C2)N(C)CC3 [tetrandrine, (1S,14S)-9,20,21,25-tetramethoxy-15,30-dimethyl-7,23-dioxa-15,30-diazaheptacyclo[22.6.2.2^3,6.1^8,12.1^14,18.0^27,31.0^22,33]hexatriaconta-3(36),4,6(35),8,10,12(34),18,20,22(33),24,26,31-dodecaene] |  |  |  |  | inducing | selectively inhibited | selectively induces apoptosis
